The full ranking holds about 2,300 sequences; the median of “median log2 fold change of GCK-ALFA target abundance (FLAG IP / Myc IP barcode read proportion)” is about 0.095, and the lowest 2% start at about -0.47. The list shows a part of the results.
B1: LC3A_free_2_2172 (protein)
chain: MKYRVIIDALGKPEGIAKLVKTLVDLGIEVEVTTEDGTKMTATKETVEEVVKYLLSKKEEIYVELEAVTDKEKADKALDELEKVAEETGISYIVSIEELE
B2: LC3A_28_1060 (protein)
chain: SSIDEQIEAALKEAKEAVAKGEEALVTLTLDKNATEEDLEKILETIREIAELTKSLPSVTIIVDVDNPNKEEDTKRISEVGDELEKKYPNVTVIIALSED
B3: LC3A_132_255 (protein)
chain: SKELLEKALKELKEILDKIVELLQAGKDPWPAVKELEEKAEEYAEKLSLEETEELVKESEKYAEELFAARLDPNNEEARRVLDHIEMLFESVLIEKELKS
B4: LC3A_free_46_2406 (protein)
chain: YIAEIEIDLLADSKEKAEAAKEEIKKAFEEIAKKYGAEIEIESEIEEEPDGTVFVTIKITLRAEDKETLEKAVNEIIDKAEEIAEKHGASIIISYEISEE
B5: LC3A_17_560 (protein)
chain: MEEIKKELEEILEELEKIAKEIEKYDPEAAKKIKKLLEEAKKLLKEGKLKEAAKKLEEAAELAADVLDELEDKDPEKMSNLSMLANGLALEAIGILLKLE
B6: LC3A_23_611 (protein)
chain: MYKVKVIVDIITEPEEAEKLKEEIKKAIEEFLEKNKDIIVESKVKVELEELEDGRTFLRVEIEIIIDGDKETAEKIANELTSLLDEIVPDGVISVEVEKI
B7: LC3A_40_1918 (protein)
chain: VDELAFVAVGISPELLEEVREKVDAYFAEHGTEEERDAAVAALDEAIEALKKGELAVVEITVSSQEQADFIIDQIEEAEERGRAEGHTNALIVNITVKPK
B8: LC3A_3_1724 (protein)
chain: SEEIKKETIATLKEQGKSQETIDAAKELLDELEKKGYLKAMETLLELIKESKDISSETLLAMFKDLLHIVKNEDLSEEEIIKKIKEEFEIAKNEEEIIEL
B9: LC3A_23_631 (protein)
chain: MYRLTIEIDLYGPKEEVEKAVERLKKHAEEAAKKYGATIKELKVEFEVEETPDGEEAFARITIVIEAETKEKIEAVRDALIDETDKLGVSAVVSYEIEKL
B10: LC3A_3_1752 (protein)
chain: MEEKLKEAEERLKKLGFSEEVIKAALEVIKLLLERGFEKAVETLLKELEELKDLPDEIILAMLEDIKRAVEEEDLNEEEVIKIIKEEARIARSESEIIEL
B11: LC3A_102_136 (protein)
chain: EKEKTLKEAAEKALKELEKAIEEDKSLSEEEKEKAKKLAKEAIEAKLESLLTYLKHGFMDLEAEAKMLDALEELEKINPELAKLAKKKIEELEKLAEELE
B12: LC3A_45_1990 (protein)
chain: MALATIDILVPREKLEEALAVIREKAEELKAKYGDDVEVDLERLEESAEATRDEEEVYLELNIYHPDADTALDMADEIVDRLHEVLGDSVAAIISVEELP
B13: LC3A_3_1401 (protein)
chain: FEELKKEAIEFLKEQGASEEVIEAAKEVLEKLEERGYLNAAKTFLEELKKLKDASDELLLDFLNDVLDYLEKNDSSEEEVVKYIKEEATVTLNESEIEEL
B14: LC3A_141_388 (protein)
chain: MKKEFKYTADTNTVQEIFDFFDEVEKEIKEMIEKSGGKPVKVKVKLTGTNPKTGEKKVIEEEFTVTKENVSMAVEGIAIEAVSLLDEVGGTIEIEVELEV
B15: LC3A_28_1305 (protein)
chain: SKLKKQFEEAKKKVEEAAAKGEPVVVTIEITAEEAEKELEEILELLEELGKVASKAPGATIIIDLDENVKPELQQKILDTAEKIEEKYPNVTVIIAIEDN
B16: LC3A_28_1126 (protein)
chain: SARKEAWEKAFEEAKKLAEKGEYVVAEFTATGKDTQEDIDYLIEVIEKAAKYLSEKGQSSILLDIDGSLPEEYRNYVIDKADEIEKKYPSVNIVIALEED
B17: LC3A_132_271 (protein)
chain: SEEKLQAAKEEIFAILDEIVDLLVAGEDPWPAITRLDETARKHAKELSLEDTEKLVEEAEAHARRLFAERADPNDPEARRVLDHIEMLLDSVLIEKELES
B18: LC3A_28_1000 (protein)
chain: SELEKQLEEALAEAKEAAARGEPVVITITVSGKADEEDIEKIIEAMREIAEILKDIPGSAIIVDIDSKLPQELRDKLFEAGEEIEEEYPNVTVIFALDEE
B19: LC3A_free_8_2481 (protein)
chain: GSEELAKALVEALDKAEEEIIKKAKELGKSRLDILELELEFGSIIADVISNRDKSPEEILKTLKDGLERLIEIAKEIGEEIAALVKEKAEEILAEAEKLL

Biological target: MAP1LC3A, Q9H492
Assay: median log2 fold change of GCK-ALFA target abundance (FLAG IP / Myc IP barcode read proportion) (log2 ratio); each designed protein is fused to an ALFA-tag nanobody in HEK293 cells to bring the named protein to FLAG-tagged glucokinase (GCK); Myc marks an untargeted standard; higher = target protein stabilised (more abundant)
Conditions: target protein: 3xFLAG-MCP-GCK-ALFA reporter; HEK293 landing pad (RPLP)
Summary of the method: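 Binders fused to an ALFA nanobody were recombined as a library into HEK293 landing-pad cells, which were induced with 2 μg mL^−1 doxycycline and then transfected to express a FLAG-tagged target and a Myc-tagged standard. After 48 h, circular RNA barcodes recovered by anti-FLAG and anti-Myc immunoprecipitation of lysates were reverse transcribed, amplified and sequenced. Each binder's target abundance is the median log2 ratio of FLAG to Myc barcode read proportions, from barcodes present at ≥10^−7 in both replicates, binders carrying ≥3 barcodes per replicate, a 10^−6 pseudocount and pooled replicates.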

Binder | median log2 fold change
B1 | -8.53e-05
B2 | -0.165
B3 | 0.276
B4 | -0.0841
B5 | 0.339
B6 | 0.168
B7 | -0.142
B8 | 0.3
B9 | -0.014
B10 | 0.166
B11 | 0.00055
B12 | -0.282
B13 | 0.112
B14 | 0.41
B15 | 0.305
B16 | -0.45
B17 | 0.167
B18 | -0.107
B19 | 0.111
